The other results are listed elsewhere or left out.
Biological target: T1, MBP-FoxP1dN (Mus musculus, UniProt P58462 326-579)
T1 sequence: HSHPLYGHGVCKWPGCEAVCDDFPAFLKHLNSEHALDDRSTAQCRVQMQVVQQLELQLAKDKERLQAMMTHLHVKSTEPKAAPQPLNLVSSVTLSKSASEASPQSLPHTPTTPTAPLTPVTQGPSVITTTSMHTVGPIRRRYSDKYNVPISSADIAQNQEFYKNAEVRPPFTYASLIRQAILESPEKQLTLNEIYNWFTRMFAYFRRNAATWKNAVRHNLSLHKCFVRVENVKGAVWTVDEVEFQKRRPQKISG
Assay: PD-seq (MBP pull-down with sequencing); 20 mM Tris-HCl pH 7.5, 100 mM NaCl, 1.5 mM MgCl2, 0.4 uM protein, 0.1 uM dsDNA library, 30 min, room temperature, amylose pull-down; high values mean tight binding
Details: protein: recombinant; tags: His6-MBP; chain copies: 2; dsDNA, one strand shown
In short: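 Binding is given as reads-per-million enrichment, pull-down over input, with replicates pooled. The bait was an N-terminus-lacking mouse FoxP3 or FoxP1 fragment with a His6-MBP tag, expressed in E. coli and used at 0.4 µM with 0.1 µM Klenow-filled degenerate double-stranded DNA library for 30 min at room temperature in Tris pH 7.5 buffer with NaCl and MgCl2. Amylose resin pull-down with three washes was followed by proteinase K release, PCR barcoding and Illumina sequencing.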

Point of comparison: “GATGATTGTTCTCCCAGCTGATGAATTGACTCTATCGAGTAAACAAATTTTCCTAATCTTTCTGTTCAAGCGCCATCTAC”, binding signal 1.1 RPM ratio (pull-down/input). Against it:
- GATGATTGTTCTCCCAGCTGATGAATTGAGGCTATCGAGTAAACAAATTTTCCTAATCTTTCTGTTCAAGCGCCATCTAC — lower, 1.01 RPM ratio (pull-down/input)
- GATGATTGTTCTCCCAGCTGATGAATTTAGTCCATCGAGTAAACAAATTTTCCTAATCTTTCTGTTCAAGCGCCATCTAC — lower, 1.01 RPM ratio (pull-down/input)
- GATGATTGTTCTCCCAGCTGATGAATTTACGTCCTCGAGTAAACAAATTTTCCTAATCTTTCTGTTCAAGCGCCATCTAC — higher, 1.22 RPM ratio (pull-down/input)
- GATGATTGTTCTCCCAGCTGATGAATTACTGAATTCGAGTAAACAAATTTTCCTAATCTTTCTGTTCAAGCGCCATCTAC — higher, 1.11 RPM ratio (pull-down/input)
- GATGATTGTTCTCCCAGCTGATGAATTGCGCGGGTCGAGTAAACAAATTTTCCTAATCTTTCTGTTCAAGCGCCATCTAC — lower, 0.959 RPM ratio (pull-down/input)
- GATGATTGTTCTCCCAGCTGATGAATTTCACCCATCGAGTAAACAAATTTTCCTAATCTTTCTGTTCAAGCGCCATCTAC — lower, 0.921 RPM ratio (pull-down/input)
- GATGATTGTTCTCCCAGCTGATGAATTGCGAAACTCGAGTAAACAAATTTTCCTAATCTTTCTGTTCAAGCGCCATCTAC — lower, 1.03 RPM ratio (pull-down/input)
- GATGATTGTTCTCCCAGCTGATGAATTACACTATTCGAGTAAACAAATTTTCCTAATCTTTCTGTTCAAGCGCCATCTAC — higher, 1.26 RPM ratio (pull-down/input)
- GATGATTGTTCTCCCAGCTGATGAATTACAAGCATCGAGTAAACAAATTTTCCTAATCTTTCTGTTCAAGCGCCATCTAC — higher, 1.46 RPM ratio (pull-down/input)
- GATGATTGTTCTCCCAGCTGATGAATTGTAAAGGTCGAGTAAACAAATTTTCCTAATCTTTCTGTTCAAGCGCCATCTAC — lower, 0.894 RPM ratio (pull-down/input)
- GATGATTGTTCTCCCAGCTGATGAATTTCTAGGTTCGAGTAAACAAATTTTCCTAATCTTTCTGTTCAAGCGCCATCTAC — lower, 0.953 RPM ratio (pull-down/input)
- GATGATTGTTCTCCCAGCTGATGAATTTCCATTATCGAGTAAACAAATTTTCCTAATCTTTCTGTTCAAGCGCCATCTAC — lower, 0.999 RPM ratio (pull-down/input)
- GATGATTGTTCTCCCAGCTGATGAATTATAGCCCTCGAGTAAACAAATTTTCCTAATCTTTCTGTTCAAGCGCCATCTAC — lower, 0.904 RPM ratio (pull-down/input)
- GATGATTGTTCTCCCAGCTGATGAATTGGTAATCTCGAGTAAACAAATTTTCCTAATCTTTCTGTTCAAGCGCCATCTAC — lower, 1.03 RPM ratio (pull-down/input)
- GATGATTGTTCTCCCAGCTGATGAATTACGTAACTCGAGTAAACAAATTTTCCTAATCTTTCTGTTCAAGCGCCATCTAC — lower, 1.08 RPM ratio (pull-down/input)
- GATGATTGTTCTCCCAGCTGATGAATTGCATCCTTCGAGTAAACAAATTTTCCTAATCTTTCTGTTCAAGCGCCATCTAC — higher, 1.67 RPM ratio (pull-down/input)
- GATGATTGTTCTCCCAGCTGATGAATTTTGGCAATCGAGTAAACAAATTTTCCTAATCTTTCTGTTCAAGCGCCATCTAC — higher, 1.14 RPM ratio (pull-down/input)
- GATGATTGTTCTCCCAGCTGATGAATTCTACGGATCGAGTAAACAAATTTTCCTAATCTTTCTGTTCAAGCGCCATCTAC — lower, 0.818 RPM ratio (pull-down/input)
- GATGATTGTTCTCCCAGCTGATGAATTCAACCTTTCGAGTAAACAAATTTTCCTAATCTTTCTGTTCAAGCGCCATCTAC — lower, 0.896 RPM ratio (pull-down/input)
- GATGATTGTTCTCCCAGCTGATGAATTATTGACTTCGAGTAAACAAATTTTCCTAATCTTTCTGTTCAAGCGCCATCTAC — higher, 1.55 RPM ratio (pull-down/input)
- GATGATTGTTCTCCCAGCTGATGAATTCGCTTGCTCGAGTAAACAAATTTTCCTAATCTTTCTGTTCAAGCGCCATCTAC — lower, 0.817 RPM ratio (pull-down/input)
- GATGATTGTTCTCCCAGCTGATGAATTACGAGTATCGAGTAAACAAATTTTCCTAATCTTTCTGTTCAAGCGCCATCTAC — higher, 1.15 RPM ratio (pull-down/input)
- GATGATTGTTCTCCCAGCTGATGAATTGAGCTCGTCGAGTAAACAAATTTTCCTAATCTTTCTGTTCAAGCGCCATCTAC — lower, 0.799 RPM ratio (pull-down/input)
- GATGATTGTTCTCCCAGCTGATGAATTTTCTGAGTCGAGTAAACAAATTTTCCTAATCTTTCTGTTCAAGCGCCATCTAC — lower, 0.999 RPM ratio (pull-down/input)
- GATGATTGTTCTCCCAGCTGATGAATTACACTAGTCGAGTAAACAAATTTTCCTAATCTTTCTGTTCAAGCGCCATCTAC — higher, 1.11 RPM ratio (pull-down/input)
- GATGATTGTTCTCCCAGCTGATGAATTGGTTGGGTCGAGTAAACAAATTTTCCTAATCTTTCTGTTCAAGCGCCATCTAC — lower, 0.925 RPM ratio (pull-down/input)
- GATGATTGTTCTCCCAGCTGATGAATTATCTACATCGAGTAAACAAATTTTCCTAATCTTTCTGTTCAAGCGCCATCTAC — higher, 1.12 RPM ratio (pull-down/input)
- GATGATTGTTCTCCCAGCTGATGAATTCATGGTATCGAGTAAACAAATTTTCCTAATCTTTCTGTTCAAGCGCCATCTAC — lower, 0.938 RPM ratio (pull-down/input)
- GATGATTGTTCTCCCAGCTGATGAATTAGGCATCTCGAGTAAACAAATTTTCCTAATCTTTCTGTTCAAGCGCCATCTAC — lower, 1.03 RPM ratio (pull-down/input)
- GATGATTGTTCTCCCAGCTGATGAATTCACCTAATCGAGTAAACAAATTTTCCTAATCTTTCTGTTCAAGCGCCATCTAC — lower, 0.986 RPM ratio (pull-down/input)
- GATGATTGTTCTCCCAGCTGATGAATTAACGGTGTCGAGTAAACAAATTTTCCTAATCTTTCTGTTCAAGCGCCATCTAC — lower, 0.934 RPM ratio (pull-down/input)
- GATGATTGTTCTCCCAGCTGATGAATTTTGTTTGTCGAGTAAACAAATTTTCCTAATCTTTCTGTTCAAGCGCCATCTAC — higher, 2.66 RPM ratio (pull-down/input)
- GATGATTGTTCTCCCAGCTGATGAATTAACGGAATCGAGTAAACAAATTTTCCTAATCTTTCTGTTCAAGCGCCATCTAC — lower, 1.06 RPM ratio (pull-down/input)
- GATGATTGTTCTCCCAGCTGATGAATTACCCGATTCGAGTAAACAAATTTTCCTAATCTTTCTGTTCAAGCGCCATCTAC — lower, 0.883 RPM ratio (pull-down/input)
- GATGATTGTTCTCCCAGCTGATGAATTGTTGTCCTCGAGTAAACAAATTTTCCTAATCTTTCTGTTCAAGCGCCATCTAC — higher, 2.28 RPM ratio (pull-down/input)
- GATGATTGTTCTCCCAGCTGATGAATTATCTACCTCGAGTAAACAAATTTTCCTAATCTTTCTGTTCAAGCGCCATCTAC — lower, 0.893 RPM ratio (pull-down/input)
- GATGATTGTTCTCCCAGCTGATGAATTTGTGCCTTCGAGTAAACAAATTTTCCTAATCTTTCTGTTCAAGCGCCATCTAC — higher, 1.17 RPM ratio (pull-down/input)
- GATGATTGTTCTCCCAGCTGATGAATTGTTTCTATCGAGTAAACAAATTTTCCTAATCTTTCTGTTCAAGCGCCATCTAC — higher, 1.39 RPM ratio (pull-down/input)
- GATGATTGTTCTCCCAGCTGATGAATTACTACGCTCGAGTAAACAAATTTTCCTAATCTTTCTGTTCAAGCGCCATCTAC — lower, 1.01 RPM ratio (pull-down/input)
- GATGATTGTTCTCCCAGCTGATGAATTTTCTCTATCGAGTAAACAAATTTTCCTAATCTTTCTGTTCAAGCGCCATCTAC — lower, 0.946 RPM ratio (pull-down/input)
- GATGATTGTTCTCCCAGCTGATGAATTAACTCACTCGAGTAAACAAATTTTCCTAATCTTTCTGTTCAAGCGCCATCTAC — lower, 0.933 RPM ratio (pull-down/input)
- GATGATTGTTCTCCCAGCTGATGAATTAGTGCCATCGAGTAAACAAATTTTCCTAATCTTTCTGTTCAAGCGCCATCTAC — lower, 1 RPM ratio (pull-down/input)
- GATGATTGTTCTCCCAGCTGATGAATTGCCGTCTTCGAGTAAACAAATTTTCCTAATCTTTCTGTTCAAGCGCCATCTAC — lower, 0.938 RPM ratio (pull-down/input)
- GATGATTGTTCTCCCAGCTGATGAATTCCTTTAGTCGAGTAAACAAATTTTCCTAATCTTTCTGTTCAAGCGCCATCTAC — lower, 0.819 RPM ratio (pull-down/input)
- GATGATTGTTCTCCCAGCTGATGAATTCCTAACGTCGAGTAAACAAATTTTCCTAATCTTTCTGTTCAAGCGCCATCTAC — lower, 0.908 RPM ratio (pull-down/input)
- GATGATTGTTCTCCCAGCTGATGAATTCTGAGTCTCGAGTAAACAAATTTTCCTAATCTTTCTGTTCAAGCGCCATCTAC — lower, 0.814 RPM ratio (pull-down/input)
- GATGATTGTTCTCCCAGCTGATGAATTAGCGAGATCGAGTAAACAAATTTTCCTAATCTTTCTGTTCAAGCGCCATCTAC — lower, 0.803 RPM ratio (pull-down/input)
- GATGATTGTTCTCCCAGCTGATGAATTTGTCCTGTCGAGTAAACAAATTTTCCTAATCTTTCTGTTCAAGCGCCATCTAC — lower, 0.967 RPM ratio (pull-down/input)
- GATGATTGTTCTCCCAGCTGATGAATTCAGCATATCGAGTAAACAAATTTTCCTAATCTTTCTGTTCAAGCGCCATCTAC — lower, 1 RPM ratio (pull-down/input)
- GATGATTGTTCTCCCAGCTGATGAATTATCGAAGTCGAGTAAACAAATTTTCCTAATCTTTCTGTTCAAGCGCCATCTAC — lower, 0.927 RPM ratio (pull-down/input)
- GATGATTGTTCTCCCAGCTGATGAATTTGGGCCTTCGAGTAAACAAATTTTCCTAATCTTTCTGTTCAAGCGCCATCTAC — lower, 0.874 RPM ratio (pull-down/input)
- GATGATTGTTCTCCCAGCTGATGAATTTGTAGCCTCGAGTAAACAAATTTTCCTAATCTTTCTGTTCAAGCGCCATCTAC — lower, 1.08 RPM ratio (pull-down/input)
- GATGATTGTTCTCCCAGCTGATGAATTCGTGAATTCGAGTAAACAAATTTTCCTAATCTTTCTGTTCAAGCGCCATCTAC — lower, 0.888 RPM ratio (pull-down/input)
- GATGATTGTTCTCCCAGCTGATGAATTTGTCAAATCGAGTAAACAAATTTTCCTAATCTTTCTGTTCAAGCGCCATCTAC — higher, 1.17 RPM ratio (pull-down/input)
- GATGATTGTTCTCCCAGCTGATGAATTAGTACTGTCGAGTAAACAAATTTTCCTAATCTTTCTGTTCAAGCGCCATCTAC — lower, 1 RPM ratio (pull-down/input)
- GATGATTGTTCTCCCAGCTGATGAATTCTGGTCTTCGAGTAAACAAATTTTCCTAATCTTTCTGTTCAAGCGCCATCTAC — lower, 0.828 RPM ratio (pull-down/input)
- GATGATTGTTCTCCCAGCTGATGAATTCGGGGAGTCGAGTAAACAAATTTTCCTAATCTTTCTGTTCAAGCGCCATCTAC — lower, 0.762 RPM ratio (pull-down/input)
- GATGATTGTTCTCCCAGCTGATGAATTCGGGTTATCGAGTAAACAAATTTTCCTAATCTTTCTGTTCAAGCGCCATCTAC — lower, 0.898 RPM ratio (pull-down/input)
- GATGATTGTTCTCCCAGCTGATGAATTCGTACAATCGAGTAAACAAATTTTCCTAATCTTTCTGTTCAAGCGCCATCTAC — higher, 1.16 RPM ratio (pull-down/input)
- GATGATTGTTCTCCCAGCTGATGAATTCGCAGCTTCGAGTAAACAAATTTTCCTAATCTTTCTGTTCAAGCGCCATCTAC — lower, 0.825 RPM ratio (pull-down/input)
- GATGATTGTTCTCCCAGCTGATGAATTAGTTTAGTCGAGTAAACAAATTTTCCTAATCTTTCTGTTCAAGCGCCATCTAC — lower, 0.952 RPM ratio (pull-down/input)
- GATGATTGTTCTCCCAGCTGATGAATTTCATGTTTCGAGTAAACAAATTTTCCTAATCTTTCTGTTCAAGCGCCATCTAC — lower, 0.998 RPM ratio (pull-down/input)

Source: PMC12820563, “FoxP3 forms a head-to-head dimer in vivo and stabilizes its multimerization on adjacent microsatellites”
